Screen size: about 360,000 compounds; about 660 (0.18%) were called active. This list was built around the results that the source calls inconclusive (neither active nor inactive); the mix of calls is not that of the screen. Calls follow the shape of the dose curve; as a rule, active = well fitted inhibition curve with a large enough effect; inconclusive = small, poorly fitted or top-dose-only effect; inactive = no such curve, though single readings can be large or run the other way. Potencies of inconclusive entries are left out as doubtful fits.
What follows are molecules tested against Rap guanine nucleotide exchange factor 4 (Homo sapiens) (UniProt Q8WZA2) (assay: qHTS for Antagonist of cAMP-regulated guanine nucleotide exchange factor 2 (EPAC2): primary screen). Details: EPAC2 GEF exchange of Rap1B-BODIPY-GDP, fluorescence; series mostly up to 114 µM.
Also: nearly all actives have a fitted effect of over 45% in size.
Potency is read from the fitted curve at half-maximal effect; tags tell the direction and shape of the fitted curve.

Chain of UniProt Q8WZA2 (Q8WZA2 whole entry, looked up): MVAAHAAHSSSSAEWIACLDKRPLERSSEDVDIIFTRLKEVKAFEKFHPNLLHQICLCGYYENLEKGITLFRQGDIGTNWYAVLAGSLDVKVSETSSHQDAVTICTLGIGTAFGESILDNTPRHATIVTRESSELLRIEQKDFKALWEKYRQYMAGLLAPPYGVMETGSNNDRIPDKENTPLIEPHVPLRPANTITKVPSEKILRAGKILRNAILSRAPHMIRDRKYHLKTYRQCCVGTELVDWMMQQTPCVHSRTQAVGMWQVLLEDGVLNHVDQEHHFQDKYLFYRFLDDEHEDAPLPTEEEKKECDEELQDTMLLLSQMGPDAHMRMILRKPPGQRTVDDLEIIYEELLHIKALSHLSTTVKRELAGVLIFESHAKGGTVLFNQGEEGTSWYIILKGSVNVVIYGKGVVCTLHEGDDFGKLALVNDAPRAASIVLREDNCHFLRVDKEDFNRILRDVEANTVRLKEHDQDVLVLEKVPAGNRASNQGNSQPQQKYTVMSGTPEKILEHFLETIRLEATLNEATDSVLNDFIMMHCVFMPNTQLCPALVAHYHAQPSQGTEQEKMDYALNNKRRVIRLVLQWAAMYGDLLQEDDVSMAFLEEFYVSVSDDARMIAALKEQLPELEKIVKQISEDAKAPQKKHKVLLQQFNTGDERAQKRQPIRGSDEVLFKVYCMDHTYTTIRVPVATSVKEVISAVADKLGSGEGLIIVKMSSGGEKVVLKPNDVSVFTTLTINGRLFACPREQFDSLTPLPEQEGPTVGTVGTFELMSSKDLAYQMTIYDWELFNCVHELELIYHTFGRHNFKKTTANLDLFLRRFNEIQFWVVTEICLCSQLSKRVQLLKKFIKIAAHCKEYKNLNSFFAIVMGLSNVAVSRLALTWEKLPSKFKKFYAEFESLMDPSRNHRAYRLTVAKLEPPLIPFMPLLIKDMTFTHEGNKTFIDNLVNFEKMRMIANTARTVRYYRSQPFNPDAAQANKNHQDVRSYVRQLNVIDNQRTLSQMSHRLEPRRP

Row | Compound | Potency
1 | COc1ccc([C@]2(C(C)C)ON(c3ccccc3C(F)(F)F)C2=O)cc1 | inconclusive [inhibitor, partial curve]
2 | Cc1ccc(NNC(=S)Nc2ccc(C(C)C)cc2)c(C)c1 | inconclusive [inhibitor, partial curve]
3 | COC(=O)c1c(NC(=O)CN2C(=O)NC3(CCCCC3C)C2=O)sc2c1CCC2 (centres undefined) | inconclusive [inhibitor, single point]
4 | COC(=O)c1ccc(N2NC(=O)/C(=C/c3cc(OC)c(O)c(OC)c3)C2=O)cc1 | inactive
5 | CC(C)c1ccc(C(=O)N2CCOCC2c2cc(C(=O)Nc3ccccc3)no2)cc1 (centres undefined) | inconclusive [inhibitor, partial curve]
6 | CC1c2cc3c(cc2CCN1C(=O)c1cccc(Cl)c1)OCCCO3 (centres undefined) | inconclusive [inhibitor, single point]
7 | O=C1CN(C(=O)c2c(F)cccc2F)C(c2ccc(F)cc2)c2cc(Br)ccc2N1 (centres undefined) | inconclusive [inhibitor, partial curve]
8 | CCCCS(=O)(=O)Nc1ccc2cn[nH]c2c1 | inactive
9 | Cc1cc(/C=C2\C(=N)N3N=C(S(C)(=O)=O)SC3=NC2=O)c(C)n1Cc1ccccc1 | inconclusive [inhibitor, partial curve]
10 | Clc1ccccc1-c1ncnc2ccc(Br)cc12 | inconclusive [inhibitor, partial curve]
11 | CCOC(=O)/C=C1\CC(C(=O)OCC)Oc2c(OC)cccc21 (centres undefined) | inactive
12 | Cc1c(CCC(=O)O)c(=O)oc2cc(OCc3cccc(Cl)c3)ccc12 | inconclusive [inhibitor, partial curve]
13 | CCC(=O)NC(c1ccccc1)c1c(O)ccc2ccccc12 (centres undefined) | inconclusive [inhibitor, full curve]
14 | COc1ccc(C(O)(CCC(C)C)C(CN2CCOCC2)c2ccc(Cl)cc2)cc1 (centres undefined) | inconclusive [inhibitor, partial curve]
15 | CC(C)(C)c1ccc(C(=O)NC(=S)N2CCOCC2)cc1 | inactive
16 | COc1cc(C(=O)NNC(=S)NC(=O)c2ccccc2C)cc(OC)c1OC | inactive
17 | CS(=O)(=O)c1cnc2c(S(=O)(=O)c3ccccc3)cnn2c1N | inactive
18 | CCCNC(=O)C1(C)CCCN(Cc2csc(-c3ccccc3)n2)C1 (centres undefined) | inconclusive [inhibitor, full curve]
19 | CCOC(=O)c1sc(NC(=O)CCN2CCN(CC)CC2)c(C(=O)OCC)c1C | inconclusive [inhibitor, partial curve]
20 | CC(C)Oc1ccc(OCCn2c(=S)[nH]c3c(N)ncnc32)cc1 | inactive
21 | Clc1ccc(-c2csc(=Nc3cccnc3)n2CCCn2ccnc2)cc1Cl | inactive
22 | Cc1ccc(S(=O)(=O)Nc2ccccc2NS(=O)(=O)c2ccc(C)cc2)cc1 | inconclusive [inhibitor, partial curve]
23 | CC1CCCN(c2c3c(nc4ccccc24)CCCC3)C1 (centres undefined) | inconclusive [inhibitor, partial curve]

Row | Compound | Potency
24 | Cn1c(C(=O)O)cc2c(=O)n3ccccc3nc21 | inconclusive [inhibitor, single point]
25 | Cc1ccccc1NC(=O)CC1C(=O)NCCN1C(=O)c1cccc(Cl)c1 (centres undefined) | inconclusive [inhibitor, single point]
26 | CCOC(=O)C1=C(C)NC(C)=C(C(=O)OCC)C1c1cccc([N+](=O)[O-])c1 | inconclusive [inhibitor, partial curve]
27 | COc1ccc(C=O)c(-c2c(-c3ccccc3OC)sc3ccccc23)c1 | inconclusive [inhibitor, full curve]
28 | O=C(/C=C/c1ccccc1Cl)c1ccc(O)cc1 | inactive
29 | C1=CC(c2cc3ccccc3o2)OC(CCc2ccccc2)C1 (centres undefined) | inconclusive [inhibitor, full curve]
30 | Cc1ccc(-c2nc(C(=O)NCCCN(C)C)cc3c2[nH]c2ccccc23)cc1 | inconclusive [inhibitor, full curve, poor fit]
31 | COc1ccc(-n2c(C)cc(C(=O)CCl)c2C)cc1 | active: 7.94 µM
32 | Nc1ccc(NC(=O)NC2CCCCC2)cc1[N+](=O)[O-] | inactive
33 | COc1ccc2oc(C(=O)N3CCN(C/C=C/c4ccccc4)CC3)c(C)c2c1 | inactive
34 | O=C(Nc1cccc(Cl)c1N1CCCC1)c1ccco1 | inconclusive [inhibitor, partial curve]
35 | Fc1ccc(-c2nc3ccc(Br)cn3c2Cc2cccc(F)c2)cc1 | inconclusive [inhibitor, partial curve]
36 | CC(C)OCCCNC(=O)C1CCC(CNS(=O)(=O)c2ccccc2)CC1 (centres undefined) | inactive
37 | COc1ccc(CCCNC(=O)C2Cc3c(-c4ccccc4)ccnc3O2)cc1 (centres undefined) | inconclusive [inhibitor, full curve]
38 | CC(C)CCC1=NN(C(=O)c2ccco2)C(O)(C(F)(F)F)C1 (centres undefined) | inconclusive [inhibitor, full curve]
39 | COCCNc1nc(-c2cc(F)ccc2C)c2sc(-c3ccccc3)cc2n1 | inconclusive [inhibitor, single point]
40 | CC(=O)N1CCN(c2ccccc2NC(=O)c2ccc3ccccc3c2)CC1 | inconclusive [inhibitor, partial curve, poor fit]
41 | O=S1(=O)CCOC[C@H](CC2CCCCC2)N1Cc1ccccc1F | inconclusive [inhibitor, partial curve]
42 | O=C(c1ccc(C(F)(F)F)cc1)N1CCC(=O)N(C(COCc2ccccc2)Cc2ccccc2)CC1 (centres undefined) | inconclusive [inhibitor, partial curve]
43 | CC(=O)N1CCN(CC(c2ccccc2)c2ccccc2)CC1 | inconclusive [inhibitor, partial curve]
44 | COC(=O)C1=CN(Cc2ccc(OC)cc2)C=C(C(=O)OC)C1c1cccs1 | inconclusive [inhibitor, partial curve]
45 | CCc1nc2c(OCc3cccc(Cl)c3)cccn2c1N(C)C(=O)CC(C)C | inconclusive [inhibitor, partial curve, poor fit]
46 | Cn1c(N)c(C(=O)COC(=O)CCC2CCCCC2)c(=O)n(C)c1=O | inconclusive [inhibitor, partial curve]

Row | Compound | Potency
47 | COc1ccc(CN(C)C(=O)c2sccc2-c2ccccc2)c(OC)c1 | inconclusive [inhibitor, full curve]
48 | Cc1ccccc1CN(C)C(C)C(=O)Nc1ccccc1F (centres undefined) | inconclusive [inhibitor, partial curve]
49 | CCCCSc1nc2c(c(=O)n1CC)SC(C)C2 (centres undefined) | inconclusive [inhibitor, partial curve]
50 | Cc1ccc(/C=C/c2ccc(=O)n(Cc3ccccc3Cl)n2)cc1 | inconclusive [inhibitor, partial curve]
51 | O=C(Nc1ccc(Cl)cc1)c1cccc(N2C(=O)C3C4CCC(C4)C3C2=O)c1 (centres undefined) | inconclusive [inhibitor, partial curve]
52 | COc1ccc(C2=NNC(c3ccco3)=Nc3ccc(F)cc32)cc1 | inconclusive [inhibitor, partial curve]
53 | O=C1Nc2ccc(S(=O)(=O)NCCCO)c3cccc1c23 | inactive
54 | Clc1ccccc1-c1ccc2nccn2c1 | inconclusive [inhibitor, partial curve]
55 | CCOC(=O)c1nc(C)nc(Sc2n[nH]c(-c3cc(Cl)cc(Cl)c3)n2)c1C | inconclusive [inhibitor, full curve]
56 | COc1ccc(S(=O)(=O)N(C)C[C@@H]2Oc3ccc(NS(C)(=O)=O)cc3C(=O)N([C@@H](C)CO)C[C@H]2C)cc1 | inconclusive [inhibitor, partial curve]
57 | CCOc1ccc(CC(=O)NCc2ccc3c(c2)cc(C)n3C)cc1 | inactive
58 | CCCCn1c(SCn2nnc3ccccc3c2=O)nc2cc(S(N)(=O)=O)ccc21 | inactive
59 | CCOc1nc(C)cc(C)c1S(=O)(=O)c1ccc(Cl)cc1 | inconclusive [inhibitor, partial curve]
60 | CCOC(=O)N1CCN=C1SCc1ccc(C(F)(F)F)cc1 | inconclusive [inhibitor, single point]
61 | COC(=O)C(Cc1cccc(C)n1)(c1ccccc1)c1ccccc1 | inconclusive [inhibitor, partial curve]
62 | O=C(CSc1ccc(-c2ccco2)nn1)Nc1ccccc1 | inactive
63 | Cc1ccc(CNC(=O)CN2CCC(C(N)=O)CC2)cc1 | inactive
64 | CSc1nc2ccccc2c(=O)n1C1CCCCC1 | inconclusive [inhibitor, full curve]
65 | O=C(NCCCCc1ccccc1)c1cccc(NC(=O)C2CC2)c1 | inactive
66 | CCCc1nc2ccc(C(=O)OC)cn2c1Cc1cccc(F)c1 | inconclusive [inhibitor, partial curve]
67 | COc1cccc(/C=N/NC(=O)C(C)Sc2ccccc2)c1 (centres undefined) | inconclusive [inhibitor, partial curve]
68 | O=C(N=C1c2ccccc2CN1c1ccc(F)cc1)c1ccc(Cl)nc1 | inconclusive [inhibitor, partial curve]
69 | CCCc1cc(C(=O)N(C)CC(=O)Nc2ccc(OCC)c(OCC)c2)sc1C | inconclusive [inhibitor, partial curve]

Source: PubChem BioAssay AID720708 (National Center for Advancing Translational Sciences (NCATS), 2013)
